Counter-ions that a name gives are not always drawn. ± gives the standard deviation of the averaged measurements. In all, about 2,600 compounds were measured (“total cell number (DAPI+ nuclei) relative to DMSO vehicle control”: median about -1.4, lowest 2% from about -23 on). This is one part of the list.
Each compound was assayed on jimpy (Plp1 jimpy) mouse iPSC-derived oligodendrocyte progenitor cells (assay: total cell number (DAPI+ nuclei) relative to DMSO vehicle control (SDs above negative control mean); higher = more surviving cells). Conditions: 10 µM; 3 days.
`CN1CC(=O)N2[C@H](c3ccc4c(c3)OCO4)c3[nH]c4ccccc4c3C[C@@H]2C1=O` [Tadalafil] showed a total cell number of -0.473. Compound `CCN(C(=O)c1c(O)c2c(Cl)cccc2n(C)c1=O)c1ccccc1` [Laquinimod] has a total cell number of -1.22. For `CCc1nc(N)nc(N)c1-c1ccc(Cl)cc1` [Pyrimethamine], the total cell number was 14.7. For `Cc1c(C(=O)NN2CCCCC2)nn(-c2ccc(Cl)cc2Cl)c1-c1ccc(I)cc1`, the total cell number was -7.02. `CC(C)NCC(O)COc1ccc(CCOCC2CC2)cc1` (stereo not given) [Betaxolol hydrochloride] showed a total cell number of -1.49. `CC(C)NCC(O)COc1ccc(CCOCC2CC2)cc1` (stereo not given) [Betaxolol] was tested, and the total cell number was 4.24. Compound `CCCN1CCCC[C@H]1C(=O)Nc1c(C)cccc1C` [Ropivacaine HCl] has a total cell number of -0.0603. Work on `Cc1ccc(S(=O)(=O)N[C@@H](Cc2ccccc2)C(=O)CCl)cc1` [N-p-Tosyl-L-phenylalanine chloromethyl ketone] yielded a total cell number of -0.79. With `CC(C)(OCc1nn(Cc2ccccc2)c2ccccc12)C(=O)O` [Bindarit] the total cell number was -1.02. `Nc1n[n+]([O-])c2ccccc2[n+]1[O-]` [Tirapazamine] showed a total cell number of -6.5. `Cc1cccc(-c2[nH]c(C(C)(C)C)nc2-c2ccc3c(c2)OCO3)n1` showed a total cell number of -9.25. `CC(NC(=O)c1ccccc1/N=C/c1c(O)ccc2ccccc12)c1ccccc1` (stereo not given) [Sirtinol] was tested, and the total cell number was -0.73. In the case of `COc1cc(OC2CCN(C)CC2)ccc1Nc1ncc2c(n1)n(C1CCCC1)c(=O)n2C`, the total cell number is reported as -7.07. Compound `C1COC(NC(C2CC2)C2CC2)=N1` [Rilmenidine hemifumarate] has a total cell number of -1.55. In the case of `Cn1c(=O)[nH]c2ncn(C)c2c1=O` [1,7-Dimethylxanthine], the total cell number is reported as -1.33. In the case of `C#CCN[C@@H]1CCc2ccccc21` [Rasagiline Mesylate], the total cell number is reported as 1.16. In the case of `COc1ccc(NS(=O)(=O)c2sc3ccc(Cl)cc3c2C)cc1N1CCNCC1`, the total cell number is reported as -3.32. `CCCn1c(=O)[nH]c(=O)c2[nH]cnc21` [3-n-Propylxanthine] gave a total cell number of -0.654. `C[N+](C)(C)CC=O` [Betaine aldehyde chloride] showed a total cell number of -1.57. `OC[C@H]1O[C@@H](n2cnc3c(NC4CCCC4)ncnc32)[C@H](O)[C@@H]1O` [N6-Cyclopentyladenosine] showed a total cell number of -0.867. With `CCOc1nc2cccc(C(=O)OCc3oc(=O)oc3C)c2n1Cc1ccc(-c2ccccc2-c2noc(=O)[nH]2)cc1` [Azilsartan Medoxomil] the total cell number was -0.583. Compound `COc1ccccc1Oc1c(NS(=O)(=O)c2ccc(C(C)(C)C)cc2)nc(-c2ncccn2)nc1OCCO` [Bosentan Hydrate] has a total cell number of -0.436. Work on `C[S+]([O-])c1ccc(-c2nc(-c3ccc(F)cc3)c(-c3ccncc3)[nH]2)cc1` (stereo not given) yielded a total cell number of -13.3. Work on `O=C(/C=C/c1ccc(O)cc1)CC(=O)/C=C/c1ccc(O)cc1` [Bisdemethoxycurcumin] yielded a total cell number of 0.0609. `COc1cc2c(Oc3ccc(NC(=O)C4(C(=O)Nc5ccc(F)cc5)CC4)cc3F)ccnc2cc1OCCCN1CCOCC1` was tested, and the total cell number was -27. For `O=C(O)Cc1c[nH]c2ccc(O)cc12` [5-Hydroxyindolacetic acid], the total cell number was -1.23. In the case of `CCN(c1nc(N)c(C(=O)NC(=N)N)nc1Cl)C(C)C` [5-(N-Ethyl-N-isopropyl)amiloride], the total cell number is reported as -4.19. `CC(C)[N+](C)(CCOC(=O)C1c2ccccc2Oc2ccccc21)C(C)C` [Propantheline bromide] gave a total cell number of 1.22. `CN1CCC[C@@H]1Cc1c[nH]c2ccc(CCS(=O)(=O)c3ccccc3)cc12` [Eletriptan hydrobromide] showed a total cell number of -0.403. In the case of `CN1CCC[C@@H]1Cc1c[nH]c2ccc(CCS(=O)(=O)c3ccccc3)cc12` [Eletriptan HBr], the total cell number is reported as -2.64. `CN(C)CCC=C1c2ccccc2COc2ccccc21` [Doxepin hydrochloride] showed a total cell number of -4.35. `O=C(O)CCNC(=O)c1ccccc1` [Betamipron] showed a total cell number of -0.864. `O=C(N[C@H](CO)[C@H](O)c1ccc([N+](=O)[O-])cc1)C(Cl)Cl` [Chloramphenicol] was tested, and the total cell number was 1.99. In the case of `CO[C@H]1/C=C\C=C(/C)C(=O)NC2=CC(=O)C(NCCN(C)C)=C(C[C@@H](C)C[C@H](OC)[C@H](O)[C@@H](C)/C=C(\C)[C@@H]1OC(N)=O)C2=O` [17-DMAG (Alvespimycin) HCl], the total cell number is reported as -26.5. For `CCC[C@@H]1C[C@@H](C(=O)N[C@@H]([C@H]2O[C@H](SC)[C@H](O)[C@@H](O)[C@H]2O)[C@H](C)Cl)N(C)C1` [Clindamycin], the total cell number was -1.66. `CCC[C@@H]1C[C@@H](C(=O)N[C@@H]([C@H]2O[C@H](SC)[C@H](O)[C@@H](O)[C@H]2O)[C@H](C)Cl)N(C)C1` [Clindamycin HCl] showed a total cell number of -0.134. Compound `CC(=O)N[C@@H](Cc1c[nH]c2ccccc12)C(=O)OCc1cc(C(F)(F)F)cc(C(F)(F)F)c1` has a total cell number of -0.0963. For `CCN(CC)CCOC(=O)c1cc(Cl)c(N)cc1OC` [SDZ-205,557 hydrochloride], the total cell number was -1.66. `C=C1/C(=C\C=C2/CCC[C@]3(C)[C@@H]([C@H](C)CCCC(C)C)CC[C@@H]23)C[C@@H](O)C[C@@H]1O` [Alfacalcidol] showed a total cell number of -17.2. Compound `NC/C=C/C(=O)O` [(E)-4-amino-2-butenoic acid] has a total cell number of -1.89. With `CN(C)C/C=C(/c1ccc(Br)cc1)c1cccnc1` [Zimelidine dihydrochloride] the total cell number was -5.1. `CCOc1ccc2ccccc2c1C(=O)N[C@@H]1C(=O)N2[C@@H]1SC(C)(C)[C@@H]2C(=O)O` [Nafcillin Sodium] gave a total cell number of 0.904. `CCN(CC)CCNC(=O)c1cc(Cl)c(N)cc1OC` [Metoclopramide hydrochloride] showed a total cell number of -0.654. `NCCCNCCCCNCCCN` [Spermine tetrahydrochloride] was tested, and the total cell number was -0.619. Work on `CC1=NN(c2ccccc2)C(=O)C1` [Edaravone] yielded a total cell number of -0.664. In the case of `Cn1cnc2c1c(=O)[nH]c(=O)n2C` [Theobromine], the total cell number is reported as 0.0968 ± 1.4. `Cc1c(-c2ccccc2)oc2c(C(=O)OCCN3CCCCC3)cccc2c1=O` [Flavoxate HCl] showed a total cell number of 0.0683. For `CC(C)C[C@@H](C(=O)N[C@H](C(=O)OC1CCCC1)c1ccccc1)[C@H](O)C(=O)NO` [Tosedostat (CHR2797)], the total cell number was -8.26. For `COc1ccc(O)cc1` [Mequinol], the total cell number was -2.09. For `Cc1cc(Nc2ncc3cc(-c4c(Cl)cccc4Cl)c(=O)n(C)c3n2)ccc1F`, the total cell number was -10.8. `CCCCCCOC(=O)NC(=N)c1ccc(NCc2nc3cc(C(=O)N(CCC(=O)OCC)c4ccccn4)ccc3n2C)cc1` [Dabigatran Etexilate] showed a total cell number of -5.12. `OC[C@H]1NC[C@H](O)[C@@H](O)[C@@H]1O` [1-Deoxynojirimycin hydrochloride] gave a total cell number of -0.443. `Cc1cc(C)c(CNC(=O)c2cc(-c3ccc(CN4CCOCC4)cc3)cc3c2cnn3C2CCCC2)c(=O)[nH]1` was tested, and the total cell number was 7.3. Compound `CC1(C)O[C@H]2CC(=O)OC[C@]23[C@H]2CC[C@@]4(C)[C@H](c5ccoc5)OC(=O)[C@H]5O[C@]54[C@]2(C)C(=O)C[C@@H]13` [Limonin] has a total cell number of -2.65. `COc1ccc(Cn2ccc3ccc(C(=O)NO)cc32)cc1` was tested, and the total cell number was -5.76. For `C#Cc1cccc(Nc2ncnc3cc(OCCOC)c(OCCOC)cc23)c1` [Erlotinib HCl (OSI-744)], the total cell number was -16.6. Work on `Cc1onc(-c2ccccc2Cl)c1C(=O)N[C@@H]1C(=O)N2[C@@H]1SC(C)(C)[C@@H]2C(=O)O` [Cloxacillin Sodium] yielded a total cell number of -1.25. With `COC(=O)C1=CO[C@@H](O[C@@H]2O[C@H](CO)[C@@H](O)[C@H](O)[C@H]2O)[C@@H]2C(CO)=CC[C@H]12` [Geniposide] the total cell number was 0.365. Work on `Cn1c(=O)c2[nH]c(-c3ccccc3)nc2n(C)c1=O` [1,3-Dimethyl-8-phenylxanthine] yielded a total cell number of -1.44. With `CN[C@@H]1[C@H](O)[C@H](NC)[C@H]2O[C@@]3(O)C(=O)C[C@@H](C)O[C@H]3O[C@@H]2[C@H]1O` [Spectinomycin HCl] the total cell number was -0.251. `O.O=[Si]=O.O=[Si]=O.O=[Si]=O.O=[Si]=O.[O]=[Mg].[O]=[Mg].[O]=[Mg]` was tested, and the total cell number was -1.76. `NS(=O)(=O)c1cc2c(cc1Cl)NC(C(Cl)Cl)NS2(=O)=O` (stereo not given) [Trichlormethiazide] gave a total cell number of -2.72. With `NC(=O)c1cnc(N[C@@H]2CCCC[C@@H]2N)nc1Nc1cccc(-n2nccn2)c1` the total cell number was -12. `CN[C@H](CC(=O)O)C(=O)O` [N-Methyl-D-aspartic acid] was tested, and the total cell number was -1.02. Work on `NC(N)=NC(N)=Nc1cccc(Cl)c1` [1-(m-Chlorophenyl)-biguanide hydrochloride] yielded a total cell number of -1.53. `Cc1c(OCC(F)(F)F)ccnc1C[S@@+]([O-])c1nc2ccccc2[nH]1` [Dexlansoprazole] gave a total cell number of 9.33. For `CC(C(=O)O)c1ccc(-c2ccccc2)c(F)c1` (stereo not given) [Flurbiprofen], the total cell number was -1.97. `NC(=O)c1cn(Cc2c(F)cccc2F)nn1` [Rufinamide] was tested, and the total cell number was -3.42 ± 2.6. `Cc1cc(O)c2c(c1)C(=O)c1cccc(O)c1C2=O` [Chrysophanic Acid] showed a total cell number of -0.456. Work on `COc1cc2c(N3CCN(C(=O)Nc4ccc(OC(C)C)cc4)CC3)ncnc2cc1OCCCN1CCCCC1` [Tandutinib (MLN518)] yielded a total cell number of -10.3. Work on `CC(=O)O[C@H]1CC[C@@]2(C)C(=CC[C@@H]3[C@@H]2CC[C@]2(C)C(c4cccnc4)=CC[C@@H]32)C1` [Abiraterone Acetate] yielded a total cell number of -0.749. Compound `Cc1ccccc1C(=O)Nc1ccc(C(=O)N2CCCC(O)c3cc(Cl)ccc32)c(C)c1` (stereo not given) [Tolvaptan] has a total cell number of -0.544. Work on `CC[N+](CC)(CC)CCOc1ccc(/C=C/c2ccccc2)cc1` yielded a total cell number of -9.16. With `CN(C)C(=O)C(CCN1CCC(O)(c2ccc(Cl)cc2)CC1)(c1ccccc1)c1ccccc1` [Loperamide HCl] the total cell number was -10.8. With `CN(C)C(=O)C(CCN1CCC(O)(c2ccc(Cl)cc2)CC1)(c1ccccc1)c1ccccc1` [Loperamide hydrochloride] the total cell number was -7.72.

Source: the supplement of paper PMC6135742
